# Test results reported in PubChem BioAssay (NCATS).
# This list was built around the results that the source calls inconclusive (neither active nor inactive); the mix of calls is not that of the screen. Potencies beside an inconclusive call are fits to weak or partial responses and may not hold up. Active and inactive are the calls of the source. Calls follow the shape of the dose curve; as a rule, active = well fitted inhibition curve with a large enough effect; inconclusive = small, poorly fitted or top-dose-only effect; inactive = no such curve, though single readings can be large or run the other way.
# Target: Cytochrome P450 2C9 (Homo sapiens) (UniProt P11712)
# Assay: qHTS Assay for Inhibitors and Substrates of Cytochrome P450 2C9 (AID 883); also: nearly all actives have a fitted effect of over 60% in size
# Settings: recombinant CYP2C9, luciferin-H luminescence, 60 min; series mostly up to 11.4 µM
# Method in brief: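 10nM CYP2C9 + 100uM Luciferin-H (=KM), 25mM KPO4; cpd 10 min 37C; NADPH regen, 60 min 37C; stop/detect with P450 Glo-Buffer 20 min; luminescence. Norm. to 57uM sulphaphenazole as full inhibition.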
# Potency is read from the fitted curve at half-maximal effect; tags tell the direction and shape of the fitted curve.
# UniProt P11712, sequence (P11712 whole entry, looked up): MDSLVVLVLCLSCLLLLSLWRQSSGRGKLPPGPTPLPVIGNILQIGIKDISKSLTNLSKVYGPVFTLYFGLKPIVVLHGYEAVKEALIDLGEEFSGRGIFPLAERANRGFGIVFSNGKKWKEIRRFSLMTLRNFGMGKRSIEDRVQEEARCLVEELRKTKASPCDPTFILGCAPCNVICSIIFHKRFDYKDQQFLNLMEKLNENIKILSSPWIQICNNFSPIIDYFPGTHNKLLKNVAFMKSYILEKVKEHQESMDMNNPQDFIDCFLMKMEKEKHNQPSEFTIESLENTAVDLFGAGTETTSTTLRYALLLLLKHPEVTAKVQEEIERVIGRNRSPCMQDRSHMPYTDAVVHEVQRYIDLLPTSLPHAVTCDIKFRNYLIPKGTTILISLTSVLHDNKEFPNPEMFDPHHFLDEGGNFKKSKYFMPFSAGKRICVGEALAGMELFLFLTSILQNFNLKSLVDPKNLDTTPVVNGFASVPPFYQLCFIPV
row,Compound,Potency
1,O=C(O)c1ccccc1C1c2ccccc2Oc2ccccc21,"inconclusive: 3.98 µM [inhibitor, partial curve]"
2,O=c1c2ccccc2oc2cc(O)c([C@@H]3COC[C@@H](CO)[C@@H](O)[C@@H](O)[C@H]3O)c(O)c12,inactive
3,C[C@@H]1C[C@H](C)CN(S(=O)(=O)c2cc(Cl)c(Oc3ccc([N+](=O)[O-])cc3Cl)c(Cl)c2)C1,"inconclusive: 6.31 µM [inhibitor, single point]"
4,COc1ccc(O[C@H]2C=C[C@@H](c3ccccc3)O[C@H]2COC(=O)CC/C(C)=N\O[C@@H](C)CN2CCCc3nc(C)c(C)cc32)cc1,"inconclusive: 3.98 µM [inhibitor, partial curve]"
5,O=C1C=C[C@@H](O)[C@@H]2[C@H]3C(=O)N(c4ccc(F)cc4F)C(=O)[C@@H]3CC[C@@H]12,inactive
6,C/C(CCC(=O)OC[C@@H]1O[C@H](C#Cc2ccccc2)C=C[C@@H]1Oc1ccc(C)cc1)=N/OC[C@@H](O)COCc1ccco1,"inconclusive: 1.58 µM [inhibitor, partial curve]"
7,COC(=O)NC(c1ccccc1)[C@]1(C(C)=O)CCCC1=O (some centres not stated),inactive
8,CC(=O)OC[C@@H]1O[C@H](CCO/N=C(\C)CCC(=O)OC[C@@H]2O[C@H](C#Cc3ccccc3)C=C[C@@H]2Oc2ccc(C)cc2)C=C[C@@H]1OC(C)=O,"inconclusive: 6.31 µM [inhibitor, single point]"
9,NCCNC(=S)S,"inconclusive: 6.31 µM [inhibitor, single point]"
10,CC1=C(\C=C/C(C)=C/C=C\C(C)=C\CO)C(C)(C)CCC1,inactive
11,CC(=O)O[C@H]1CC[C@@]2(C)[C@@H](CC[C@@]3(C)[C@H]2C(=O)C=C2[C@H]4C[C@](C)(C(=O)OCCN5CCCCC5)CC[C@]4(C)CC[C@@]23C)C1(C)C,inactive
12,COc1cccc(Cn2c(=O)c(-c3cn(C)c4ccccc34)nc3cncnc32)c1,"inconclusive: 0.794 µM [inhibitor, full curve]"
13,Cc1cc(=O)oc2cc(OC3C=CC(C#CC(C)(C)C)OC3CO)ccc12 (configuration not stated),inactive
14,COc1cc(N)c(Cl)cc1C(=O)CCC1CCN(CCNS(C)(=O)=O)CC1,active: 0.251 µM
15,COC(=O)C1=C(C)N(Cc2ccccc2)C2=C(C(C)=O)C[C@@](O)(C(=O)OC)C(=O)N2C1c1ccccc1 (some centres not stated),inactive
16,COC(=O)C1=C(C)N(Cc2ccccc2)[C@]23O[C@](C(=O)OC)(C(=O)N2C1c1ccccc1)C(c1ccccc1)C3C(=O)c1ccccc1 (some centres not stated),inactive
17,CC(=O)OCC1OC(C#Cc2ccccc2)C=CC1OC(C)=O (configuration not stated),inactive
18,C[C@@H](C(=O)NCc1cccc2ccccc12)[C@H]1C[C@]1(C)[C@H](NC(=O)OCc1ccccc1)c1ccccc1,active: 3.16 µM
19,C[C@H]1O[C@@H](CC(=O)O)Cc2c1c(O)c1c(O)cc(-c3cc(=O)c4c(=O)c5c(c(=O)c=4c3=O)C[C@H](CC(=O)O)O[C@@H]5C)c(O)c1c2O,"inconclusive: 7.94 µM [inhibitor, single point]"
20,C=CC[C@@H]1C=C[C@H](O/N=C(\C)CCN2CCc3nc(-c4ccccc4)c(-c4ccccc4)cc3C2)[C@H](CO)O1,"inconclusive: 0.0794 µM [inhibitor, partial curve]"
21,C=COCC1CN2C(CCC(C)C2c2ccc(Br)cc2)C(=O)O1 (configuration not stated),inactive
22,COC(=O)C1=C(C)N(Cc2ccccc2)[C@]23O[C@](C(=O)OC)(C(=O)N2C1c1ccccc1)C1C(=O)N(C)C(=O)C13 (some centres not stated),inactive
23,COC(=O)C[C@@H]1O[C@H]1[C@H](C)[C@@H](OC)C(C)C,"inconclusive: 3.16 µM [inhibitor, single point]"
24,COc1ccc(O[C@H]2C=C[C@@H](c3ccccc3)O[C@H]2COC(=O)CC/C(C)=N\O[C@@H](C)c2cc(-c3c(C)cc(C)cc3C)no2)cc1,"inconclusive: 1.58 µM [inhibitor, full curve]"
25,CC1(C)[C@@H](O)CC[C@@]2(C)[C@H]1CC[C@]1(C)[C@H]2C(=O)C=C2[C@@H]3C[C@@](C)(C(=O)O)CC[C@]3(C)CC[C@@]21C,inactive
26,N=C(N)SCc1cccc(-c2nc3ccccc3c(=O)o2)c1,"inconclusive: 5.01 µM [inhibitor, single point]"
27,CC(C)C[C@@H](CC(=O)N[C@@H](CCCN)CC(=O)N[C@@H]1CCCC[C@H]1C(=O)N[C@H](CC(=O)N[C@@H](CCC(=O)O)CC(=O)O)Cc1c[nH]c2ccccc12)NC(=O)[C@@H]1CNCC[C@H]1N,inactive
